# According to the supplement of paper PMC8728848:
# The other results are listed elsewhere or left out.
# B1: HPAIIITrx (Helix pomatia), Q1KM18 (protein)
# chain: MLFVTIISLGLLAIVHGQCALKTIAFSAAIDREQTFDANQVVIYDIVITNHGNAYDNSTGLFTAPVDGMYSFQLNLLTIKEKEGWLELVHNGQLKVSVYAKQDSTYDSSSNSVIIKMKEGDRVNVRAHKKSGLFGRDDELYNTFSGHFLSGL
# Experiments:
# Experiment in all cases: glycan array binding signal (z-score within array); higher = stronger binding
# Conditions in all cases: glycan notation: IUPAC condensed, linker removed
# Man(a1-6)Man = biological target: Man(a1-6)Man
# How it was run: (§1)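 Glycan array binding is given as a within-array Z-score, which can be read as non-binding when negative. The arrays, 3228 of them, came from the Consortium for Functional Glycomics database and were retained only where the protein sequence was available. Z-scores were averaged across arrays of the same protein sequence at different concentrations or buffers and across linkers.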
# Man(b1-4)GlcNAc = biological target: Man(b1-4)GlcNAc
# How it was run: as §1
# MurNAc(b1-4)GlcNAc = biological target: MurNAc(b1-4)GlcNAc
# How it was run: as §1
# Neu5Ac(a2-3)Gal = biological target: Neu5Ac(a2-3)Gal
# How it was run: as §1
# [1] = biological target: Neu5Ac(a2-3)Gal(b1-3)GalNAc
# How it was run: as §1
# [2] = biological target: Neu5Ac(a2-3)Gal(b1-3)GalNAc(b1-3)Gal(a1-4)Gal(b1-4)Glc
# How it was run: as §1
# [3] = biological target: Neu5Ac(a2-3)Gal(b1-3)GalNAc(b1-3)Gal(b1-4)GlcNAc
# How it was run: as §1
# [4] = biological target: Neu5Ac(a2-3)Gal(b1-3)GalNAc(b1-4)[Neu5Ac(a2-3)]Gal(b1-4)Glc
# How it was run: as §1
# [5] = biological target: Neu5Ac(a2-3)Gal(b1-3)GalNAc(b1-4)[Neu5Ac(a2-8)Neu5Ac(a2-3)]Gal(b1-4)Glc
# How it was run: as §1
# [6] = biological target: Neu5Ac(a2-3)Gal(b1-3)GalNAc6S
# How it was run: as §1
# [7] = biological target: Neu5Ac(a2-3)Gal(b1-3)GlcNAc
# How it was run: as §1
# [8] = biological target: Neu5Ac(a2-3)Gal(b1-3)GlcNAc(b1-2)Man
# How it was run: as §1
# [9] = biological target: Neu5Ac(a2-3)Gal(b1-3)GlcNAc(b1-2)Man(a1-3)[GlcNAc(b1-4)][Neu5Ac(a2-3)Gal(b1-3)GlcNAc(b1-2)Man(a1-6)]Man(b1-4)GlcNAc(b1-4)GlcNAc
# How it was run: as §1
# [10] = biological target: Neu5Ac(a2-3)Gal(b1-3)GlcNAc(b1-2)Man(a1-3)[Neu5Ac(a2-3)Gal(b1-3)GlcNAc(b1-2)Man(a1-6)]Man(b1-4)GlcNAc(b1-4)GlcNAc
# How it was run: as §1
# [11] = biological target: Neu5Ac(a2-3)Gal(b1-3)GlcNAc(b1-3)Gal(b1-3)GlcNAc
# How it was run: as §1
# [12] = biological target: Neu5Ac(a2-3)Gal(b1-3)GlcNAc(b1-3)Gal(b1-4)GlcNAc
# How it was run: as §1
# [13] = biological target: Neu5Ac(a2-3)Gal(b1-3)GlcNAc(b1-3)GalNAc
# How it was run: as §1
# [14] = biological target: Neu5Ac(a2-3)Gal(b1-3)GlcNAc(b1-4)Gal(b1-4)Glc
# How it was run: as §1
# [15] = biological target: Neu5Ac(a2-3)Gal(b1-3)GlcNAc(b1-6)GalNAc
# How it was run: as §1
# [16] = biological target: Neu5Ac(a2-3)Gal(b1-3)GlcNAc6S
# How it was run: as §1
# [17] = biological target: Neu5Ac(a2-3)Gal(b1-3)[Fuc(a1-4)]GlcNAc
# How it was run: as §1
# [18] = biological target: Neu5Ac(a2-3)Gal(b1-3)[Fuc(a1-4)]GlcNAc(b1-3)Gal(b1-3)[Fuc(a1-4)]GlcNAc
# How it was run: as §1
# [19] = biological target: Neu5Ac(a2-3)Gal(b1-3)[Fuc(a1-4)]GlcNAc(b1-3)Gal(b1-4)[Fuc(a1-3)]GlcNAc
# How it was run: as §1
# [20] = biological target: Neu5Ac(a2-3)Gal(b1-3)[GlcNAc(b1-6)]GalNAc
# How it was run: as §1
# [21] = biological target: Neu5Ac(a2-3)Gal(b1-3)[Neu5Ac(a2-3)Gal(b1-4)]GlcNAc
# How it was run: as §1
# [22] = biological target: Neu5Ac(a2-3)Gal(b1-3)[Neu5Ac(a2-6)]GalNAc
# How it was run: as §1
# [23] = biological target: Neu5Ac(a2-3)Gal(b1-3)[Neu5Ac(a2-6)]GlcNAc(b1-3)[Fuc(a1-3)[Gal(b1-4)]GlcNAc(b1-6)]Gal(b1-4)Glc
# How it was run: as §1
# [24] = biological target: Neu5Ac(a2-3)Gal(b1-3)]Neu5Ac(a2-3)Gal(b1-4)]GlcNAc
# How it was run: as §1
# Neu5Ac(a2-3)Gal(b1-4)Glc = biological target: Neu5Ac(a2-3)Gal(b1-4)Glc
# How it was run: as §1
# [25] = biological target: Neu5Ac(a2-3)Gal(b1-4)GlcNAc
# How it was run: as §1
# [26] = biological target: Neu5Ac(a2-3)Gal(b1-4)GlcNAc(b1-2)Man
# How it was run: as §1
# [27] = biological target: Neu5Ac(a2-3)Gal(b1-4)GlcNAc(b1-2)Man(a1-3)[GlcNAc(b1-2)Man(b1-4)GlcNAc(b1-2)Man(a1-6)]Man(b1-4)GlcNAc(b1-4)GlcNAc
# How it was run: as §1
# [28] = biological target: Neu5Ac(a2-3)Gal(b1-4)GlcNAc(b1-2)Man(a1-3)[GlcNAc(b1-4)][Neu5Ac(a2-3)Gal(b1-4)GlcNAc(b1-2)Man(a1-6)]Man(b1-4)GlcNAc(b1-4)GlcNAc
# How it was run: as §1
# [29] = biological target: Neu5Ac(a2-3)Gal(b1-4)GlcNAc(b1-2)Man(a1-3)[Neu5Ac(a2-3)Gal(b1-4)GlcNAc(b1-2)Man(a1-6)]Man(b1-4)GlcNAc(b1-4)GlcNAc
# How it was run: as §1
# [30] = biological target: Neu5Ac(a2-3)Gal(b1-4)GlcNAc(b1-2)Man(a1-3)[Neu5Ac(a2-3)Gal(b1-4)GlcNAc(b1-2)Man(a1-6)]Man(b1-4)GlcNAc(b1-4)[Fuc(a1-6)]GlcNAc
# How it was run: as §1
# [31] = biological target: Neu5Ac(a2-3)Gal(b1-4)GlcNAc(b1-2)Man(a1-3)[Neu5Ac(a2-6)Gal(b1-4)GlcNAc(b1-2)Man(a1-6)]Man(b1-4)GlcNAc(b1-4)GlcNAc
# How it was run: as §1
# [32] = biological target: Neu5Ac(a2-3)Gal(b1-4)GlcNAc(b1-2)[Neu5Ac(a2-3)Gal(b1-4)GlcNAc(b1-4)]Man(a1-3)[GlcNAc(b1-4)][Neu5Ac(a2-3)Gal(b1-4)GlcNAc(b1-2)[Neu5Ac(a2-3)Gal(b1-4)GlcNAc(b1-6)]Man(a1-6)]Man(b1-4)GlcNAc(b1-4)GlcNAc
# How it was run: as §1
# [33] = biological target: Neu5Ac(a2-3)Gal(b1-4)GlcNAc(b1-2)[Neu5Ac(a2-3)Gal(b1-4)GlcNAc(b1-4)]Man(a1-3)[GlcNAc(b1-4)][Neu5Ac(a2-3)Gal(b1-4)GlcNAc(b1-4)Man(a1-6)]Man(b1-4)GlcNAc(b1-4)GlcNAc
# How it was run: as §1
# [34] = biological target: Neu5Ac(a2-3)Gal(b1-4)GlcNAc(b1-2)[Neu5Ac(a2-3)Gal(b1-4)GlcNAc(b1-6)]Man(a1-6)[Neu5Ac(a2-3)Gal(b1-4)GlcNAc(b1-2)Man(a1-3)]Man(b1-4)GlcNAc(b1-4)GlcNAc
# How it was run: as §1
# [35] = biological target: Neu5Ac(a2-3)Gal(b1-4)GlcNAc(b1-2)[Neu5Ac(a2-3)Gal(b1-4)GlcNAc(b1-6)]Man(a1-6)[Neu5Ac(a2-3)Gal(b1-4)GlcNAc(b1-2)Man(a1-3)][GlcNAc(b1-4)]Man(b1-4)GlcNAc(b1-4)GlcNAc
# How it was run: as §1
# [36] = biological target: Neu5Ac(a2-3)Gal(b1-4)GlcNAc(b1-3)Gal
# How it was run: as §1
# [37] = biological target: Neu5Ac(a2-3)Gal(b1-4)GlcNAc(b1-3)Gal(b1-3)GlcNAc
# How it was run: as §1
# [38] = biological target: Neu5Ac(a2-3)Gal(b1-4)GlcNAc(b1-3)Gal(b1-4)GlcNAc
# How it was run: as §1
# [39] = biological target: Neu5Ac(a2-3)Gal(b1-4)GlcNAc(b1-3)Gal(b1-4)GlcNAc(b1-2)Man(a1-3)[Neu5Ac(a2-3)Gal(b1-4)GlcNAc(b1-3)Gal(b1-4)GlcNAc(b1-2)Man(a1-6)]Man(b1-4)GlcNAc(b1-4)GlcNAc
# How it was run: as §1
# [40] = biological target: Neu5Ac(a2-3)Gal(b1-4)GlcNAc(b1-3)Gal(b1-4)GlcNAc(b1-3)Gal(b1-4)GlcNAc
# How it was run: as §1
binder,measurement,setting,value
B1,glycan array binding signal (z-score),Man(a1-6)Man,0.212
same,glycan array binding signal (z-score),Man(b1-4)GlcNAc,-0.249
same,glycan array binding signal (z-score),MurNAc(b1-4)GlcNAc,-0.392
same,glycan array binding signal (z-score),Neu5Ac(a2-3)Gal,-0.093
same,glycan array binding signal (z-score),[1],-0.415
same,glycan array binding signal (z-score),[2],-0.222
same,glycan array binding signal (z-score),[3],-0.377
same,glycan array binding signal (z-score),[4],-0.412
same,glycan array binding signal (z-score),[5],-0.255
same,glycan array binding signal (z-score),[6],-0.302
same,glycan array binding signal (z-score),[7],-0.407
same,glycan array binding signal (z-score),[8],0.114
same,glycan array binding signal (z-score),[9],-0.253
same,glycan array binding signal (z-score),[10],0.179
same,glycan array binding signal (z-score),[11],-0.405
same,glycan array binding signal (z-score),[12],-0.46
same,glycan array binding signal (z-score),[13],-0.255
same,glycan array binding signal (z-score),[14],-0.297
same,glycan array binding signal (z-score),[15],-0.423
same,glycan array binding signal (z-score),[16],0.657
same,glycan array binding signal (z-score),[17],-0.4
same,glycan array binding signal (z-score),[18],-0.101
same,glycan array binding signal (z-score),[19],1.57
same,glycan array binding signal (z-score),[20],-0.366
same,glycan array binding signal (z-score),[21],-0.323
same,glycan array binding signal (z-score),[22],-0.012
same,glycan array binding signal (z-score),[23],-0.403
same,glycan array binding signal (z-score),[24],-0.402
same,glycan array binding signal (z-score),Neu5Ac(a2-3)Gal(b1-4)Glc,-0.124
same,glycan array binding signal (z-score),[25],-0.432
same,glycan array binding signal (z-score),[26],1.64
same,glycan array binding signal (z-score),[27],-0.455
same,glycan array binding signal (z-score),[28],-0.498
same,glycan array binding signal (z-score),[29],-0.44
same,glycan array binding signal (z-score),[30],-0.442
same,glycan array binding signal (z-score),[31],-0.506
same,glycan array binding signal (z-score),[32],-0.418
same,glycan array binding signal (z-score),[33],-0.441
same,glycan array binding signal (z-score),[34],-0.285
same,glycan array binding signal (z-score),[35],-0.5
same,glycan array binding signal (z-score),[36],-0.48
same,glycan array binding signal (z-score),[37],0.276
same,glycan array binding signal (z-score),[38],-0.508
same,glycan array binding signal (z-score),[39],0.77
same,glycan array binding signal (z-score),[40],-0.467
